Measured values reported in patent US11618753B2 (priority 2018, dated 2023).

test system: MLKL phosphorylation, HT29-L23 human colorectal adenocarcinoma cells; assay: cells; settings: read-out: pMLKL HCS Cell Assay (IC50, uM)

Structure (SMILES) | IC50
CO[C@@H](CCNC(=O)c1cc(-c2cc(C(F)(F)F)c3c(N)ncnn23)cnc1C)c1ccc(Cl)cc1 [Example 177, 5-[4-amino-5-(trifluoromethyl)pyrrolo[2,1-f][1,2,4]triazin-7-yl]-N-[(3S)-3-(4-chlorophenyl)-3-methoxypropyl]-2-methylpyridine-3-carboxamide] | 0.001 µM
Cc1ccc(-c2cc(CN3CCC(F)(F)CC3)c3c(N)ncnn23)cc1C(=O)N[C@@H]1CN(C(=O)[C@@H]2CC2(F)F)C[C@@H]1F [Example 1572, 5-{4-amino-5-[(4,4-difluoropiperidin-1-yl)methyl]pyrrolo[2,1-f][1,2,4]triazin-7-yl}-N-[(3R,4S)-1-[(1S)-2,2-difluorocyclopropanecarbonyl]-4-fluoropyrrolidin-3-yl]-2-methylbenzamide] | 0.00041 µM
Cc1ccc(-c2cc(C(F)(F)F)c3c(N)ncnn23)cc1C(=O)N[C@@H]1CN(C(=O)c2ccc(F)cc2)C[C@@H]1F [Example 1002, 5-[4-amino-5-(trifluoromethyl)pyrrolo[2,1-f][1,2,4]triazin-7-yl]-N-[(3R,4S)-4-fluoro-1-(4-fluorobenzoyl)pyrrolidin-3-yl]-2-methylbenzamide] | 0.0052 µM
Cc1ccc(-c2cc(C(F)(F)F)c3c(N)ncnn23)cc1C(=O)N[C@@H]1CN(C(=O)CC2CC(F)(F)C2)C[C@@H]1F [Example 1045, 5-[4-amino-5-(trifluoromethyl)pyrrolo[2,1-f][1,2,4]triazin-7-yl]-N-[(3R,4S)-1-[2-(3,3-difluorocyclobutyl)acetyl]-4-fluoropyrrolidin-3-yl]-2-methylbenzamide] | 0.0042 µM
Nc1ncnn2c(-c3cc(F)c(F)c(C(=O)N[C@@H]4CN(C(=O)C5CC(F)(F)C5)C[C@@H]4F)c3)cc(C(F)(F)F)c12 [Example 1336, 5-[4-amino-5-(trifluoromethyl)pyrrolo-[2,1-f][1,2,4]triazin-7-yl]-N-[(3R,4S)-1-(3,3-difluorocyclobutanecarbonyl)-4-fluoropyrrolidin-3-yl]-2,3-difluoro-benzamide] | 0.015 µM
CC(C)CC(=O)N1C[C@H](F)[C@H](NC(=O)c2cc(-c3cc(CN4CCC(F)(F)CC4)c4c(N)ncnn34)ccc2Cl)C1 [Example 1146, 5-{4-amino-5-[(4,4-difluoropiperidin-1-yl)methyl]pyrrolo[2,1-f][1,2,4]triazin-7-yl}-2-chloro-N-[(3R,4S)-4-fluoro-1-(3-methylbutanoyl)pyrrolidin-3-yl]benzamide] | 0.00047 µM
Nc1ncnn2c(-c3cccc(C(=O)N[C@@H]4CN(C(=O)c5c(F)cncc5F)C[C@@H]4F)c3)cc(C(F)(F)F)c12 [Example 94, 3-[4-amino-5-(trifluoromethyl)pyrrolo[2,1-f][1,2,4]triazin-7-yl]-N-[(3R,4S)-1-(3,5-difluoropyridine-4-carbonyl)-4-fluoropyrrolidin-3-yl]benzamide] | 0.012 µM
[2H]C([2H])([2H])Oc1ncc(-c2cc(CN3CC(F)(F)C3)c3c(N)ncnn23)cc1C(=O)N[C@@H]1CN(S(=O)(=O)Cc2ccccc2)C[C@@H]1F [Example 1296, 5-{4-amino-5-[(3,3-difluoroazetidin-1-yl)methyl]pyrrolo[2,1-f][1,2,4]triazin-7-yl}-N-[(3R,4S)-4-fluoro-1-phenylmethanesulfonylpyrrolidin-3-yl]-2-(methoxy-d3)nicotinamide] | 0.00069 µM
CCc1ccc(-c2cc(C(F)(F)F)c3c(N)ncnn23)cc1C(=O)N[C@@H]1CN(C(=O)C(O)(CC)C(F)(F)F)C[C@@H]1F (stereo partly drawn) [Example 967, 5-[4-amino-5-(trifluoromethyl)pyrrolo[2,1-f][1,2,4]triazin-7-yl]-2-ethyl-N-[(3R,4S)-4-fluoro-1-[2-hydroxy-2-(trifluoromethyl)butanoyl]pyrrolidin-3-yl]benzamide] | 0.016 µM
Nc1ncnn2c(-c3cc(F)c(CF)c(C(=O)N[C@@H]4CN(C(=O)CC(O)(C(F)(F)F)C(F)(F)F)C[C@@H]4F)c3)cc(C(F)(F)F)c12 [Example 570, 5-[4-amino-5-(trifluoromethyl)pyrrolo[2,1-f][1,2,4]triazin-7-yl]-3-fluoro-N-[(3R,4S)-4-fluoro-1-[4,4,4-trifluoro-3-hydroxy-3-(trifluoromethyl)butanoyl]pyrrolidin-3-yl]-2-(fluoromethyl)benzamide] | 0.0012 µM
COc1ccc(-c2cc(C(F)(F)F)c3c(N)ncnn23)cc1C(=O)N[C@@H]1CN(C(=O)[C@@](C)(O)C(F)(F)F)C[C@@H]1F [Example 1120, 5-[4-amino-5-(trifluoromethyl)pyrrolo[2,1-f][1,2,4]triazin-7-yl]-N-[(3R,4S)-4-fluoro-1-[(28)-3,3,3-trifluoro-2-hydroxy-2-methylpropanoyl]pyrrolidin-3-yl]-2-methoxybenzamide] | 0.0015 µM
Nc1ncnn2c(-c3ccc(OCC(F)(F)F)c(C(=O)N[C@@H]4CN(C(=O)CC(O)(C(F)(F)F)C(F)(F)F)C[C@@H]4F)c3)cc(C(F)(F)F)c12 [Example 1078, 5-[4-amino-5-(trifluoromethyl)pyrrolo[2,1-f][1,2,4]triazin-7-yl]-N-[(3R,4S)-4-fluoro-1-[4,4,4-trifluoro-3-hydroxy-3-(trifluoromethyl)butanoyl]pyrrolidin-3-yl]-2-(2,2,2-trifluoroethoxy)benzamide] | 0.03 µM
Nc1ncnn2c(-c3cc(F)c(CF)c(C(=O)N[C@@H]4CN(C(=O)C5CCC(F)(F)CC5)C[C@@H]4F)c3)cc(C(F)(F)F)c12 [Example 619, 5-[4-amino-5-(trifluoromethyl)pyrrolo[2,1-f][1,2,4]triazin-7-yl]-N-[(3R,S5)-1-(4,4-difluorocyclohexanecarbonyl)-4-fluoropyrrolidin-3-yl]-3-fluoro-2-(fluoromethyl)benzamide] | 0.0031 µM
COc1ncc(-c2cc(CN3CCCCN3)c3c(N)ncnn23)cc1C(=O)N[C@@H]1CN(C(=O)C2CC(F)(F)C2)C[C@@H]1F [Example 1716, 5-(4-amino-5-((tetrahydropyridazin-1(2H)-yl)methyl)pyrrolo[2,1-f][1,2,4]triazin-7-yl)-N-((3R,4S)-1-(3,3-difluorocyclobutane-1-carbonyl)-4-fluoropyrrolidin-3-yl)-2-methoxynicotinamide] | 0.014 µM
CCCCCNC(=O)N1C[C@H](F)[C@H](NC(=O)c2cc(-c3cc(C(F)(F)F)c4c(N)ncnn34)cnc2OC)C1 [Example 1839, 5-(4-amino-5-(trifluoromethyl)pyrrolo[2,1-f][1,2,4]triazin-7-yl)-N-((3R,4S)-4-fluoro-1-(pentylcarbamoyl)pyrrolidin-3-yl)-2-methoxynicotinamide] | 0.288 µM
Cc1ncc(-c2cc(C(F)(F)F)c3c(N)ncnn23)cc1C(=O)NCC(C)(O)C(OC(F)F)c1ccc(F)cc1 (stereo not drawn) [Example 1763, 5-(4-amino-5-(trifluoromethyl)pyrrolo[2,1-f][1,2,4]triazin-7-yl)-N-(3-(difluoromethoxy)-3-(4-fluorophenyl)-2-hydroxy-2-methylpropyl)-2-methylnicotinamide] | 0.0037 µM
[2H]C([2H])([2H])Oc1ncc(-c2cc(CN3CC(F)(F)C3)c3c(N)ncnn23)cc1C(=O)N[C@@H]1CN(S(=O)(=O)CC(F)(F)F)C[C@@H]1F [Example 1278, 5-{4-amino-5-[(3,3-difluoroazetidin-1-yl)methyl]pyrrolo[2,1-f][1,2,4]triazin-7-yl}-N-[(3R,4S)-4-fluoro-1-(2,2,2-trifluoroethanesulfonyl)pyrrolidin-3-yl]-2-(methoxy-d3)nicotinamide] | 0.0019 µM
CCc1ccc(-c2cc(C(F)(F)F)c3c(N)ncnn23)cc1C(=O)N[C@@H]1CN(C(=O)CC(C)C(F)(F)F)C[C@@H]1F (stereo partly drawn) [Example 971, 5-[4-amino-5-(trifluoromethyl)pyrrolo[2,1-f][1,2,4]triazin-7-yl]-2-ethyl-N-[(3R,4S)-4-fluoro-1-(4,4,4-trifluoro-3-methylbutanoyl)pyrrolidin-3-yl]benzamide] | 0.0029 µM
Cc1cc(F)c(-c2cc(C(F)(F)F)c3c(N)ncnn23)cc1C(=O)N[C@@H]1CN(C(=O)c2cccc(F)c2)C[C@@H]1F [Example 826, 5-[4-amino-5-(trifluoromethyl)pyrrolo[2,1-f][1,2,4]triazin-7-yl]-4-fluoro-N-[(3R,4S)-4-fluoro-1-(3-fluorobenzoyl)pyrrolidin-3-yl]-2-methylbenzamide] | 0.0024 µM
COc1ncc(-c2cc(C(F)(F)F)c3c(N)ncnn23)cc1C(=O)N[C@@H]1CN(S(=O)(=O)Cc2ccccc2Cl)C[C@@H]1F [Example 1493, 5-[4-amino-5-(trifluoromethyl)pyrrolo[2,1-f][1,2,4]triazin-7-yl]-N-[(3R,4S)-1-[(2-chlorophenyl)methanesulfonyl]-4-fluoropyrrolidin-3-yl]-2-methoxypyridine-3-carboxamide] | 0.011 µM
CCOc1ccc(-c2cc(C(F)(F)F)c3c(N)ncnn23)cc1C(=O)N[C@@H]1CN(C(=O)CC(C)C(F)(F)F)C[C@@H]1F (stereo partly drawn) [Example 1101, 5-[4-amino-5-(trifluoromethyl)pyrrolo[2,1-f][1,2,4]triazin-7-yl]-2-ethoxy-N-[(3R,4S)-4-fluoro-1-(4,4,4-trifluoro-3-methylbutanoyl)pyrrolidin-3-yl]benzamide] | 0.0071 µM
Cc1c(F)cc(-c2cc(C(F)(F)F)c3c(N)ncnn23)cc1C(=O)N[C@@H]1CN(C(=O)C(C)(C)F)C[C@@H]1F [Example 673, 5-[4-amino-5-(trifluoromethyl)pyrrolo[2,1-f][1,2,4]triazin-7-yl]-3-fluoro-N-[(3R,4S)-4-fluoro-1-(2-fluoro-2-methylpropanoyl)pyrrolidin-3-yl]-2-methylbenzamide] | 0.0079 µM
Nc1ncnn2c(-c3ccc(Cl)c(C(=O)N[C@@H]4CN(C(=O)C5CCC(F)(F)CC5)C[C@@H]4F)c3)cc(CN3CCC(F)(F)CC3)c12 [Example 1147, 5-{4-amino-5-[(4,4-difluoropiperidin-1-yl)methyl]pyrrolo[2,1-f][1,2,4]triazin-7-yl}-2-chloro-N-[(3R,4S)-1-(4,4-difluorocyclohexanecarbonyl)-4-fluoropyrrolidin-3-yl]benzamide] | 0.0011 µM
Nc1ncnn2c(-c3cccc(C(=O)N4CCC[C@H](Cc5ccc(F)cc5)C4)c3)cc(C(F)(F)F)c12 [Example 81, 7-{3-[(3R)-3-[(4-fluorophenyl)methyl)piperidine-1-carbonyl]phenyl}-5-(trifluoromethyl)pyrrolo[2,1-f][1,2,4]triazin-4-amine] | 0.038 µM
